{"source": "the supplement of paper PMC8728848", "assay_in_all_cases": "glycan array binding signal (z-score within array); higher = stronger binding", "settings_in_all_cases": "glycan notation: IUPAC condensed, linker removed", "key": {"GalNAc(b1-4)GlcNAc": {"target": "GalNAc(b1-4)GlcNAc", "in_short": "(§1)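 The Consortium for Functional Glycomics database supplied 3228 glycan arrays, of which those lacking an available protein sequence were dropped. The binding signal, a within-array Z-score, was averaged across arrays of the same protein sequence and across linkers. Negative scores can be read as non-binding.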"}, "[1]": {"target": "GalNAc(b1-4)GlcNAc(b1-2)Man", "in_short": "as §1"}, "[2]": {"target": "GalNAc(b1-4)GlcNAc(b1-2)Man(a1-3)[GalNAc(b1-4)GlcNAc(b1-2)Man(a1-6)]Man(b1-4)GlcNAc(b1-4)GlcNAc", "in_short": "as §1"}, "[3]": {"target": "GalNAc(b1-4)GlcNAc(b1-3)GalNAc(b1-4)GlcNAc", "in_short": "as §1"}, "GalNAc(b1-4)GlcNAc6S": {"target": "GalNAc(b1-4)GlcNAc6S", "in_short": "as §1"}, "GalNAc(b1-6)GalNAc": {"target": "GalNAc(b1-6)GalNAc", "in_short": "as §1"}, "GalNAc3S(b1-4)GlcNAc": {"target": "GalNAc3S(b1-4)GlcNAc", "in_short": "as §1"}, "GalNAc3S(b1-4)GlcNAc3S": {"target": "GalNAc3S(b1-4)GlcNAc3S", "in_short": "as §1"}, "[4]": {"target": "GalNAc3S(b1-4)[Fuc(a1-3)]GlcNAc", "in_short": "as §1"}, "GalNAc4S6S(b1-4)GlcNAc": {"target": "GalNAc4S6S(b1-4)GlcNAc", "in_short": "as §1"}, "GalNAc6S(b1-4)GlcNAc": {"target": "GalNAc6S(b1-4)GlcNAc", "in_short": "as §1"}, "Glc(a1-4)Glc": {"target": "Glc(a1-4)Glc", "in_short": "as §1"}, "[5]": {"target": "Glc(a1-4)Glc(a1-4)Glc(a1-4)Glc", "in_short": "as §1"}, "Glc(a1-6)Glc(a1-6)Glc": {"target": "Glc(a1-6)Glc(a1-6)Glc", "in_short": "as §1"}, "[6]": {"target": "Glc(a1-6)Glc(a1-6)Glc(a1-6)Glc", "in_short": "as §1"}, "Glc(b1-4)Glc": {"target": "Glc(b1-4)Glc", "in_short": "as §1"}, "Glc(b1-6)Glc": {"target": "Glc(b1-6)Glc", "in_short": "as §1"}, "GlcA(b1-3)Gal": {"target": "GlcA(b1-3)Gal", "in_short": "as §1"}, "GlcA(b1-3)GlcNAc": {"target": "GlcA(b1-3)GlcNAc", "in_short": "as §1"}, "GlcA(b1-6)Gal": {"target": "GlcA(b1-6)Gal", "in_short": "as §1"}, "[7]": {"target": "GlcA3S(b1-3)Gal(b1-4)GlcNAc(b1-2)Man", "in_short": "as §1"}, "[8]": {"target": "GlcA3S(b1-3)Gal(b1-4)GlcNAc(b1-3)Gal(b1-4)Glc", "in_short": "as §1"}, "[9]": {"target": "GlcNAc(a1-3)Gal(b1-4)GlcNAc", "in_short": "as §1"}, "[10]": {"target": "GlcNAc(a1-4)Gal(b1-3)GlcNAc", "in_short": "as §1"}, "[11]": {"target": "GlcNAc(a1-4)Gal(b1-4)GalNAc", "in_short": "as §1"}, "[12]": {"target": "GlcNAc(a1-4)Gal(b1-4)GlcNAc", "in_short": "as §1"}, "[13]": {"target": "GlcNAc(a1-4)Gal(b1-4)GlcNAc(b1-3)Gal(b1-4)Glc", "in_short": "as §1"}, "[14]": {"target": "GlcNAc(a1-4)Gal(b1-4)GlcNAc(b1-3)Gal(b1-4)GlcNAc", "in_short": "as §1"}, "[15]": {"target": "GlcNAc(a1-4)Gal(b1-4)GlcNAc(b1-3)Gal(b1-4)GlcNAc(b1-3)Gal(b1-4)GlcNAc", "in_short": "as §1"}, "[16]": {"target": "GlcNAc(a1-4)Gal(b1-4)GlcNAc(b1-3)Gal(b1-4)[Fuc(a1-3)]GlcNAc(b1-3)Gal(b1-4)[Fuc(a1-3)]GlcNAc", "in_short": "as §1"}, "[17]": {"target": "GlcNAc(a1-6)Gal(b1-4)GlcNAc", "in_short": "as §1"}, "[18]": {"target": "GlcNAc(b1-2)Gal(b1-3)GalNAc", "in_short": "as §1"}, "[19]": {"target": "GlcNAc(b1-2)Man(a1-3)[GlcNAc(b1-2)Man(a1-6)]Man(b1-4)GlcNAc(b1-4)GlcNAc", "in_short": "as §1"}, "[20]": {"target": "GlcNAc(b1-2)Man(a1-3)[GlcNAc(b1-2)Man(a1-6)]Man(b1-4)GlcNAc(b1-4)[Fuc(a1-6)]GlcNAc", "in_short": "as §1"}, "[21]": {"target": "GlcNAc(b1-2)Man(a1-3)[GlcNAc(b1-4)][GlcNAc(b1-2)Man(a1-6)]Man(b1-4)GlcNAc(b1-4)GlcNAc", "in_short": "as §1"}, "[22]": {"target": "GlcNAc(b1-2)Man(a1-3)[GlcNAc(b1-4)][GlcNAc(b1-2)Man(a1-6)]Man(b1-4)GlcNAc(b1-4)[Fuc(a1-6)]GlcNAc", "in_short": "as §1"}, "[23]": {"target": "GlcNAc(b1-2)[GlcNAc(b1-4)]Man(a1-3)[GlcNAc(b1-2)Man(a1-6)]Man(b1-4)GlcNAc(b1-4)GlcNAc", "in_short": "as §1"}, "[24]": {"target": "GlcNAc(b1-2)[GlcNAc(b1-4)]Man(a1-3)[GlcNAc(b1-4)][GlcNAc(b1-2)Man(a1-6)]Man(b1-4)GlcNAc(b1-4)GlcNAc", "in_short": "as §1"}, "[25]": {"target": "GlcNAc(b1-2)[GlcNAc(b1-4)]Man(a1-3)[GlcNAc(b1-4)][GlcNAc(b1-2)[GlcNAc(b1-6)]Man(a1-6)]Man(b1-4)GlcNAc(b1-4)GlcNAc", "in_short": "as §1"}, "[26]": {"target": "GlcNAc(b1-2)[GlcNAc(b1-4)]Man(a1-3)[GlcNAc(b1-4)][GlcNAc(b1-2)[GlcNAc(b1-6)]Man(a1-6)]Man(b1-4)GlcNAc(b1-4)[Fuc(a1-6)]GlcNAc", "in_short": "as §1"}, "[27]": {"target": "GlcNAc(b1-2)[GlcNAc(b1-6)]Man(a1-6)[GlcNAc(b1-2)Man(a1-3)]Man(b1-4)GlcNAc(b1-4)GlcNAc", "in_short": "as §1"}, "[28]": {"target": "GlcNAc(b1-2)[GlcNAc(b1-6)]Man(a1-6)[GlcNAc(b1-2)Man(a1-3)]Man(b1-4)GlcNAc(b1-4)[Fuc(a1-6)]GlcNAc", "in_short": "as §1"}, "[29]": {"target": "GlcNAc(b1-2)[GlcNAc(b1-6)]Man(a1-6)[GlcNAc(b1-4)][GlcNAc(b1-2)Man(a1-3)]Man(b1-4)GlcNAc(b1-4)GlcNAc", "in_short": "as §1"}, "GlcNAc(b1-3)Fuc": {"target": "GlcNAc(b1-3)Fuc", "in_short": "as §1"}, "GlcNAc(b1-3)Gal": {"target": "GlcNAc(b1-3)Gal", "in_short": "as §1"}}, "note": "Some of the results follow."}
{"binder": "CFEM-CGl (Candida glabrata), Q6FRS0 (protein) VLATPPACLLACVAQVSKQSSQCHTLNQVGCFCENENTAIKNCLDSICPNGNSDAAYTAFKNSCGDVGKAVASV", "values": [{"measurement": "glycan array binding signal (z-score)", "setting": "GalNAc(b1-4)GlcNAc", "result": -0.201}, {"measurement": "glycan array binding signal (z-score)", "setting": "[1]", "result": -0.374}, {"measurement": "glycan array binding signal (z-score)", "setting": "[2]", "result": 0.055}, {"measurement": "glycan array binding signal (z-score)", "setting": "[3]", "result": 0.216}, {"measurement": "glycan array binding signal (z-score)", "setting": "GalNAc(b1-4)GlcNAc6S", "result": 0.068}, {"measurement": "glycan array binding signal (z-score)", "setting": "GalNAc(b1-6)GalNAc", "result": -0.387}, {"measurement": "glycan array binding signal (z-score)", "setting": "GalNAc3S(b1-4)GlcNAc", "result": -0.153}, {"measurement": "glycan array binding signal (z-score)", "setting": "GalNAc3S(b1-4)GlcNAc3S", "result": 0.03}, {"measurement": "glycan array binding signal (z-score)", "setting": "[4]", "result": 0.083}, {"measurement": "glycan array binding signal (z-score)", "setting": "GalNAc4S6S(b1-4)GlcNAc", "result": -0.265}, {"measurement": "glycan array binding signal (z-score)", "setting": "GalNAc6S(b1-4)GlcNAc", "result": -0.2}, {"measurement": "glycan array binding signal (z-score)", "setting": "Glc(a1-4)Glc", "result": -0.206}, {"measurement": "glycan array binding signal (z-score)", "setting": "[5]", "result": -0.555}, {"measurement": "glycan array binding signal (z-score)", "setting": "Glc(a1-6)Glc(a1-6)Glc", "result": -0.33}, {"measurement": "glycan array binding signal (z-score)", "setting": "[6]", "result": -0.444}, {"measurement": "glycan array binding signal (z-score)", "setting": "Glc(b1-4)Glc", "result": -0.222}, {"measurement": "glycan array binding signal (z-score)", "setting": "Glc(b1-6)Glc", "result": -0.428}, {"measurement": "glycan array binding signal (z-score)", "setting": "GlcA(b1-3)Gal", "result": -0.23}, {"measurement": "glycan array binding signal (z-score)", "setting": "GlcA(b1-3)GlcNAc", "result": -0.457}, {"measurement": "glycan array binding signal (z-score)", "setting": "GlcA(b1-6)Gal", "result": 1.84}, {"measurement": "glycan array binding signal (z-score)", "setting": "[7]", "result": -0.246}, {"measurement": "glycan array binding signal (z-score)", "setting": "[8]", "result": 0.183}, {"measurement": "glycan array binding signal (z-score)", "setting": "[9]", "result": -0.424}, {"measurement": "glycan array binding signal (z-score)", "setting": "[10]", "result": -0.034}, {"measurement": "glycan array binding signal (z-score)", "setting": "[11]", "result": 0.045}, {"measurement": "glycan array binding signal (z-score)", "setting": "[12]", "result": -0.237}, {"measurement": "glycan array binding signal (z-score)", "setting": "[13]", "result": -0.384}, {"measurement": "glycan array binding signal (z-score)", "setting": "[14]", "result": -0.046}, {"measurement": "glycan array binding signal (z-score)", "setting": "[15]", "result": -0.334}, {"measurement": "glycan array binding signal (z-score)", "setting": "[16]", "result": 0.293}, {"measurement": "glycan array binding signal (z-score)", "setting": "[17]", "result": 0.265}, {"measurement": "glycan array binding signal (z-score)", "setting": "[18]", "result": -0.401}, {"measurement": "glycan array binding signal (z-score)", "setting": "[19]", "result": -0.332}, {"measurement": "glycan array binding signal (z-score)", "setting": "[20]", "result": -0.127}, {"measurement": "glycan array binding signal (z-score)", "setting": "[21]", "result": -0.378}, {"measurement": "glycan array binding signal (z-score)", "setting": "[22]", "result": -0.359}, {"measurement": "glycan array binding signal (z-score)", "setting": "[23]", "result": -0.329}, {"measurement": "glycan array binding signal (z-score)", "setting": "[24]", "result": 0.203}, {"measurement": "glycan array binding signal (z-score)", "setting": "[25]", "result": -0.379}, {"measurement": "glycan array binding signal (z-score)", "setting": "[26]", "result": -0.628}, {"measurement": "glycan array binding signal (z-score)", "setting": "[27]", "result": 0.136}, {"measurement": "glycan array binding signal (z-score)", "setting": "[28]", "result": -0.226}, {"measurement": "glycan array binding signal (z-score)", "setting": "[29]", "result": -0.424}, {"measurement": "glycan array binding signal (z-score)", "setting": "GlcNAc(b1-3)Fuc", "result": -0.545}, {"measurement": "glycan array binding signal (z-score)", "setting": "GlcNAc(b1-3)Gal", "result": -0.244}]}
